PMC13083723 (Patterns, 2026)
Hit rate of the full screen: of about 5,400 compounds, about 190 (3.5%) showed an effect of 50% or more. The list shows a part of the results.

System: Vero-E6
Assay: primary screen, phospholipidosis by LipidTOX staining; higher = more effect of the substance
Conditions: 10 µM
Summary of the method: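 Drug-induced phospholipidosis detected with HCS LipidTOX Red reagent in Vero-E6 cells. Compounds tested at 10 μM, with amiodarone (10 μM) as positive control and DMSO (0.1 v/v %) as vehicle.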

Point of comparison: `CCOc1ccc(NC(C)=O)cc1`, result_ITMP -5.26%. Against it:
- c1cc(OCCN2CCCCC2)cc(-c2n[nH]c3ccc(-c4ncn[nH]4)cc23)c1 — higher, -0.52%
- O=C(Cc1ccc(Cl)c(Cl)c1)N1CCCCC1CN1CCCC1 (centres unmarked) — higher, 14.4%
- COc1ccc(N2CCOCC2)c2sc(NC(=O)N3CCC(C)(O)CC3)nc12 — higher, -0.64%
- CCN(CC)CCO[C@H]1CC[C@@]2(C)C(=CC[C@@H]3[C@@H]2CC[C@]2(C)C(=O)CC[C@@H]32)C1 — higher, 61%
- CN1CCOC(c2ccccc2)c2ccccc2C1 (centres unmarked) — higher, 2.33%
- N=C(N)NCCCCN — higher, -1.75%
- CN1CCC(=C2c3ccccc3CCc3sccc32)CC1 — higher, 42.6%
- CCc1cc(-c2n[nH]c(C)c2-c2ccc3c(c2)OCCO3)c(O)cc1O — lower, -6.77%
- C#CCOC(=O)C1=CCCN(C)C1 — higher, -0.86%
- COc1ncc(-c2ccc3nccc(-c4ccnnc4)c3c2)cc1NS(=O)(=O)c1ccc(F)cc1F — higher, -1.24%
- CC(O)C(N)C(=O)O (centres unmarked) — lower, -9.04%
- COc1ccc2cccc(N3CCN(CCNC(=O)c4ccc(F)cc4)CC3)c2c1 — higher, 14%
- CC1(C)CC[C@]2(C(=O)O)CC[C@]3(C)[C@H](C(=O)C=C4[C@@]5(C)C=C(C#N)C(=O)C(C)(C)[C@@H]5CC[C@]43C)[C@@H]2C1 — higher, -1.94%
- C[C@@]1(O)[C@H](O)[C@@H](CO)O[C@H]1n1cnc2c(O)nc(N)nc21 — higher, 7.18%
- Fc1ccc2c(CCNCc3cccc(OCC(F)(F)C(F)F)c3)c[nH]c2c1 — higher, 10.9%
- O=C(OCCOCCO)c1ccccc1Nc1cccc(C(F)(F)F)c1 — lower, -6.27%
- Cc1cc(C)c2c(N)c(C(=O)NCc3ccc(Cl)cc3)sc2n1 — higher, -3.86%
- COc1ccc(Cl)cc1[C@]1(F)C(=O)Nc2cc(C(F)(F)F)ccc21 — higher, -1.44%
- NC(=O)OC[C@@H]1[C@H](NC(=O)/C(=N\OCC(=O)[O-])c2csc(N)n2)C(=O)N1S(=O)(=O)[O-] — higher, 0.72%
- CC(C)(C)CCN1C[C@@H]2[C@@H](CNC(=O)c3cc(Cl)cc(Cl)c3)[C@@H]2C1 — higher, 20.6%
- CC(=O)Oc1ccccc1C(=O)Oc1cccc(CO[N+](=O)[O-])c1 — higher, 0.5%
- O=[N+]([O-])c1ccc2nc(COCc3nc4ccc([N+](=O)[O-])cc4[nH]3)[nH]c2c1 — lower, -6.5%
- C[N+](C)(C)CCOP(=O)([O-])OC[C@H](O)CO — higher, 0.5%
- CC(=O)Nc1cccc(O)c1 — higher, -2.86%
- Cc1cnc(C(=O)O)c[n+]1[O-] — higher, -1.43%
- O=C(c1cncc(Br)c1)N1CCC(N2CCCC2)CC1 — higher, 1.83%
- O=C(Nc1ccc([N+](=O)[O-])cc1O)Nc1ccccc1Br — higher, -0.92%
- O=c1c(O)c(-c2ccc(O)c(O)c2)oc2cc(O)cc(O)c12 — higher, -1.58%
- CCOC(=O)C1=C(O)C(=O)N(Cc2ccccc2)C1 — higher, -2.54%
- CN(C(=O)c1c(O)c2ccccc2n(C)c1=O)c1ccccc1 — higher, -2.25%
- Cc1cc(N2CCN([C@@H]3CN[C@H](C(=O)N4CCSC4)C3)CC2)n(-c2ccccc2)n1 — higher, 0.49%
- CC1(O)C(O)C(CO)OC1n1ccc(N)nc1=O (centres unmarked) — lower, -5.94%
- Nc1cc2c3ccccc3ccc2c2ccccc12 — higher, -0.54%
- COc1ccc(CN2CCN(C(c3ccc(F)cc3)c3ccc(F)cc3)CC2)c(OC)c1OC — higher, 33.9%
- CC(C)(C)c1ccc2cc(C#N)c(C#N)cc2c1 — lower, -5.37%
- CCc1ccc(C(=O)C(C)CN2CCCCC2)cc1 (centres unmarked) — higher, 4.16%
- FCc1ccc(OCCOc2ccc(Cl)cc2Cl)c(Cl)n1 — higher, -4.79%
- Cc1ccc(OCCSc2ncccn2)c(Br)c1 — higher, -4.09%
- COc1ccc(C(=O)c2ccccc2O)c(O)c1 — higher, -3.03%
- C[C@@H]1COCCN1c1cc(=O)n2c(n1)N(Cc1cncc(Cl)c1)[C@H](C(F)(F)F)CC2 — lower, -16.3%
- COc1ccc2c(c1)C(C(=O)N(Cc1ccc(N(C)C)cc1)c1ccc(C(C)C)cc1)CCC2 (centres unmarked) — higher, -2.28%
- COc1c(C)c(C(=O)c2ccc(N)c(C(=O)[O-])c2)n2ccccc12 — higher, -3.94%
- CCN1CCN(Cc2ccc(Nc3ncc(F)c(-c4cc(F)c5nc(C)n(C(C)C)c5c4)n3)nc2)CC1 — higher, 76.7%
- COCCc1ccc(OCC(O)CNC(C)C)cc1 (centres unmarked) — higher, -1.47%
- CCC(=O)O[C@@H]1CC(=O)O[C@H](C)C/C=C/C=C/[C@H](O)[C@H](C)C[C@H](CC=O)[C@H](O[C@@H]2O[C@H](C)[C@@H](O[C@H]3C[C@@](C)(O)[C@@H](OC(=O)CC)[C@H](C)O3)[C@H](N(C)C)[C@H]2O)[C@H]1OC — higher, 1.99%
- Cc1c(S(=O)(=O)[O-])oc2c1C(=O)C(=O)c1c-2ccc2c1CCCC2(C)C — higher, -1.56%
- CN1CCC[C@@H]1CCO[C@](C)(c1ccccc1)c1ccc(Cl)cc1 — higher, 90.6%
- CCOC(=O)CN1CCN(C(=O)/C=C/c2cc(OC)c(OC)c(OC)c2)CC1 — higher, -4.44%
- OC[C@H]1O[C@@H](O[C@@H]2[C@H](O)[C@@H](O)[C@H](O[C@H]3[C@H](O)[C@@H](O)C(O)O[C@@H]3CO)O[C@@H]2CO)[C@H](O)[C@@H](O)[C@H]1O (some centres unmarked) — higher, 3.95%
- O=C(c1ccc(OCCCc2c[nH]cn2)cc1)C1CC1 — higher, 13%
- CC(C)[C@H](N)C(=O)OCC(CO)OCn1cnc2c(=O)[nH]c(N)nc21 (some centres unmarked) — lower, -5.92%
- c1ccc(C2CC2)c(OCC2=NCCN2)c1 — higher, 4.05%
- C/C=C(\C(=C\C)c1ccc(O)cc1)c1ccc(O)cc1 — higher, 0.7%
- CC(C(=O)O)c1ccc(C(=O)c2cccs2)cc1 (centres unmarked) — higher, -0.4%
- COc1cc2ncnc(Nc3ccc(F)c(Cl)c3)c2cc1OCCCN1CCOCC1 — higher, -1.05%
- O=C(NC(Cc1c[nH]c2ccccc12)C(=O)[O-])c1ccc(Cl)cc1 (centres unmarked) — higher, -0.44%
- CN1CCN(c2nc(C3=C(c4c[nH]c5ccccc45)C(=O)NC3=O)c3ccccc3n2)CC1 — higher, 22.1%
- CCCCC[C@H](O)/C=C/[C@H]1[C@H](O)CC(=O)[C@@H]1CCCCCCC(=O)O — lower, -7.26%
